According to the supplement of paper PMC11417369:
± gives the standard deviation of the averaged measurements. This is one part of the list.

system: PfAP2-EXP AP2 domain (GST-tagged); assay: gcPBM binding intensity (ln(normalized median fluorescence intensity)); higher = stronger DNA binding
How it was run: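 An Agilent 4 × 180k array carrying primer-extended double-stranded 36-bp intergenic genomic probes and negative controls received GST-tagged P. falciparum DNA-binding domains expressed in E. coli, about 25 μg on average, for 1 h. The binding buffer contained 1× PBS, 1% milk, 0.2 mg/ml BSA, 0.5% salmon testes DNA and 0.03% Triton X-100. Binding intensity is the top Masliner-normalised natural-log median intensity across replicate spots of either probe orientation, read after Alexa488 anti-GST antibody staining and a 488 nm scan.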

Sequence	gcPBM binding intensity (ln)
TTCAAAAGCCGGATAACATGCAGTAGTAGAACAAAC [TGCATGCA_site413]	9.66 ± 0.46
TTTATTTATGTTGAAACATGCAAAAAGTTATTTATA [TGCATGCA_site716]	8.36 ± 0.36
AAATTAAAAAAATAATGTACATGTATTTATTATGTA [XGTACX_site2419]	8.47 ± 0.4
TTTATTTATTATTAAAGTACTAAATCATATAATTAT [XGTACX_site5727]	8.1 ± 0.3
TTGTTTTTTTTTTCTATAAGCATAAAAATGATATAA [XGTACX_negctrl_site356]	8.12 ± 0.42
TTTCTGTGTTTTGGTTGTACACACGCTACATTATAT [XGTACX_site5669]	9.35 ± 0.58
TAAAACAATACTTTGTGCTTCTCTGGTTTTTTTTTT [GTGCAC_negctrl_site284]	8.5 ± 0.49
GCTTTTAAAATAATTGGTACACATGTATAAATTCAA [XGTACX_site2327]	8.6 ± 0.22
AGTATTCACTTAATATGTACATATTTATTATAAGAG [XGTACX_site3434]	8.56 ± 0.35
TTTTATTTCTTTGCACCATTTTAAATACAAACAAAT [CACACA_negctrl_site1553]	9.075 ± 0.035
TTTTGCCTTTCTACTTGTACTTAAAATATTATAATT [XGTACX_site5483]	9.13 ± 0.52
TGGTATATAAAACACACACACATATGTATTTATATA [CACACA_site4665]	8.54 ± 0.38
CAAAAGCGATACGGCACACATTTCCTGTTTAAATGA [CACACA_site5519]	8.61 ± 0.27
TTAATTTTTAGAAGAACACACACATATATATTATGA [CACACA_site7969]	8.37 ± 0.51
AAATTGATTATAAATTGTACAAGAACATACAACCTT [XGTACX_site5986]	8.36 ± 0.4
TCATATAGATTATACACACACATATATAGATATATA [CACACA_site6587]	8.38 ± 0.28
TTATATTTCAATTAAACATGCATTTTTGTGTAGCAC [TGCATGCA_site214]	9.1 ± 0.13
TTATATATTTTATTATTTATAATCTTTTTTTTATTT [CACACA_negctrl_site112]	8.29 ± 0.32
CATTTTTTAATAATAGCACACAGGACATACAAAACA [CACACA_site1245]	9.06 ± 0.4
ACAGTATCTGGTAGCTGTACGAGTCGTAGAGTGTAG [XGTACX_site2011]	8.98 ± 0.45
AATATATAAATAAATATATAAATAAATAATTGAAGC [CACACA_negctrl_site348]	8.73 ± 0.45
TTCATTAATGTGTAATGTACTTGTAATATGGGATTA [XGTACX_site3903]	8.49 ± 0.31
AAAATATAAAGTATTTGTACATAATATATTTTTAAA [XGTACX_site3494]	8.13 ± 0.38

Sequence	gcPBM binding intensity (ln)
TGTTCTCTTCTTTTTTATTTTCCAAAGTAATAAGTT [TGCATGCA_negctrl_site424]	8.78 ± 0.4
TATATATATTTATATGCATGTAATATATTTGTATTG [TGCATGCA_site323]	8.71 ± 0.3
AGAAAAAAGAGGGATACACACAAACATATATATATA [CACACA_site5269]	9.91 ± 0.28
CATAAATCAGCCATAACACACATACATAAATACATA [CACACA_site4380]	8.6 ± 0.45
TTAATTATAATTATATGTACGAACTTTTTTTTTTTT [XGTACX_site6586]	8.29 ± 0.39
TAAATAAGTATTACTAGTACACACAAGTTGTTAATC [XGTACX_site7074]	8.57 ± 0.28
AATTATTTTATGAAAAGTACACATTGTTTTAATTCT [XGTACX_site4506]	8.38 ± 0.34
ATAGAATATTTTATTACACACAGAATAATAAAAAAT [CACACA_site6190]	8.46 ± 0.46
CTAAAAGGATGATGAATGCACTATTATTTATATGGA	8.35 ± 0.21
TTATTTTTTTTAGCATATACAAATATATATATATAT [GTGCAC_negctrl_site4]	9.96 ± 0.23
AAGAATTATTTTTTATGTACTTATATGTCAATTTTC [XGTACX_site6676]	8.56 ± 0.42
GAAGGAAATAAATCAACACACATATATTATATATAT [CACACA_site2188]	8.77 ± 0.11
TGTATTTATTAATGTACACACATGCGTATGTTCGTT [CACACA_site5892]	8.82 ± 0.4
TATATAATATATTTATGTACGTATTTAAAAATTTAT [XGTACX_site160]	8.53 ± 0.26
CATAAATATTTGTGTTGTACAAATATATATATTTAT [XGTACX_site7363]	8.51 ± 0.3
TGAAATTTGTTATATGCATGTAAAATATTACGACGA [TGCATGCA_site201]	8.79 ± 0.36
TTGTGTGAGCAAGTAGTGCATAATATAAATAAAAAA [GTGCAC_site9802]	9.12 ± 0.14
AAAATTGAAGGTAGAAGTACATATTTATTTCAATAA [XGTACX_site8732]	8.51 ± 0.44
ATTGTGGATATTCTTACACACAAATTTATATATAAA [CACACA_site2601]	8.37 ± 0.49
ATATTCTAAATAAAGGGTACACAAAAATAATTAAAG [XGTACX_site5529]	8.88 ± 0.47
TTATGAATACTTCAAGTGCATTTATTTTATATGACA	8.48 ± 0.27
TTTTGTATATTATATGTACACACAATAAGTTAATAT [CACACA_site8207]	8.54 ± 0.28
TATTTGTAATATTATACACACATTATGTATTACAAA [CACACA_site3386]	8.56 ± 0.38

Sequence	gcPBM binding intensity (ln)
ATATATATATAAAGCAGTACACACATTTATTTTAGA [XGTACX_site7226]	9.71 ± 0.12
TATGAACTTTTGGGGGTGCCTTAAAATGTATATTCT	9.43 ± 0.42
TATCAAAGTAGAAGAGATCGATGTCATATTGTGATG [GTGCAC_negctrl_site42]	8.84 ± 0.53
TCCCAATTTATTATGTGTACTTATTATATACATATA [XGTACX_site4033]	8.71 ± 0.26
CACAGACACGGACACACACACATATATATATATATA [CACACA_site5248]	10.2 ± 0.26
AACAAAATAGGGAACACACACATGTCGATATATAAA [CACACA_site7265]	8.91 ± 0.35
ATAATATGAAGAAGCACACTCAATTAAATACAGATA [CACACA_site4690]	8.61 ± 0.56
ATACACACATATATGTGTACATATACATATATATAT [XGTACX_site6744]	9.53 ± 0.32
AACATCAAAATATGCACACAAACAATTAGCGGTAGT [CACACA_site2521]	8.94 ± 0.35
AAAAAAAAAGACAAAAGTACAAAGGTTCATAATTTA [XGTACX_site3978]	8.5 ± 0.55
ATATTTTATTTTTAAAGTACAAAAGAAAAGAATAAT [XGTACX_site8247]	8.67 ± 0.52
GATTTACATTTTGATGAAAATAATAAAATGTGGAAA [TGCATGCA_negctrl_site409]	8.54 ± 0.42
AAAAAAAAAAAAAAAACATGCAGTTAGTGGTTTTTT [TGCATGCA_site243]	9.01 ± 0.56
AATAAATGGAAAAGGTGTACACAAAAAAAAGGGAAA [XGTACX_site4956]	9.26 ± 0.57
CTTATATTTGGACACACACACAATAAAATGAAAAAA [CACACA_site6614]	8.94 ± 0.45
AAATCTTCATAATAAAGTACTTAACTCTTGGTGTTA [XGTACX_site6112]	8.3 ± 0.46
TACACAAGAAAATTCACACACACACCGATATATATA [CACACA_site6008]	8.78 ± 0.33
GAAATGGGTAAACATACACACACACCGATATATATA [CACACA_site8610]	8.89 ± 0.4
AAAAATTTCTATTTTTGTACTTACTTTTTAGTAATA [XGTACX_site5236]	8.19 ± 0.27
TAACAATTATGCTGGTGTACGTTTGAAATTGGGTAT [XGTACX_site6846]	8.73 ± 0.28
AAAAAACAAAAAAATACACACATAAAAAGGTTTTAG [CACACA_site3584]	8.63 ± 0.54
TAAACATAACAAAGGAGTACAAAACTTGATCAGTTC [XGTACX_site3114]	8.87 ± 0.55
TTATAAGATGATTATAAAATCAAATTCATTCTTTTA [CACACA_negctrl_site1338]	7.84 ± 0.45

Sequence	gcPBM binding intensity (ln)
AAATATGTCAAATATACACACATAATAAATATAATA [CACACA_site2310]	8.44 ± 0.41
TATGTATAAAAATAATGTACAAAATATATTATATGT [XGTACX_site2794]	8.69 ± 0.33
ATCTTAGTTGAAATATAGAATTTATAATAAAAGTTA [GTGCAC_negctrl_site122]	8.09 ± 0.47
ATACTATAATAATACACACTCATTAGATATATAAAG [CACACA_site7787]	8.37 ± 0.3
TGTACAAATATGTACACACACACATATTTATTTATA [CACACA_site6419]	8.48 ± 0.15
ACGAAAAGATATATATGTACATATATTAAAAAAAAA [XGTACX_site1517]	8.69 ± 0.35
TTAATTAAATATAGGGGTACATATTATATATGTTTT [XGTACX_site3677]	8.74 ± 0.54
AATATGGGCATACATGTGCACTTTTTCCCGTGGTTT	8.81 ± 0.2
AAGAAATTTATTTATTGTACAATATATAATTTGTTT [XGTACX_site2478]	8.4 ± 0.49
AAATATTTCTGCAAGGTGCACTTTATAAATCTTTGA	9.95 ± 1.4
TTATATGCATATTTTTGTACACAACATTGTTGTATA [XGTACX_site8707]	8.95 ± 0.38
ATGTATATTTTTATGTGTACGTAATAAAACATAATA [XGTACX_site7777]	8.62 ± 0.014
TTATTTTTTTTTAGAGCACACATTTTTAATAAGGTA [CACACA_site2133]	8.38 ± 0.19
TATAAATTTGTTCAATGTACATGTAAAGATATAATC [XGTACX_site371]	8.81 ± 0.29
TGAAGCAAAAACAAAACACACATATAAATAAATAAA [CACACA_site3925]	8.72 ± 0.43
TTATTTTTTATAAAATGTACATATATTTTAAATATA [XGTACX_site4026]	8.41 ± 0.29
ACCAATCCAAAAGAATGTACCCATGTTTTAAAATAT [XGTACX_site2907]	8.49 ± 0.28
TTTTGTTAACATATAGAAAAGAACAAAGTTAAAAAG [XGTACX_negctrl_site462]	8.73 ± 0.48
TTCGTATGCATGAAATGTACATGATATTATTATAAA [XGTACX_site4542]	8.55 ± 0.37
GAAAAAAAAATACATACACACAATATATTTATTTAT [CACACA_site3124]	8.32 ± 0.4
